Results as given in publication PMC5892938.
The other results are listed elsewhere or left out. The source does not settle which construct or isoform was used.

molecular target: GST-SBP-ILF3 (Homo sapiens) (UniProt Q12906); assay: targeted RNA Bind-n-Seq; conditions: RBNS binding buffer: 25 mM Tris pH 7.5, 150 mM KCl, 3 mM MgCl2, 0.1% Tween, 0.5 mg/mL BSA, 1 mM DTT; 27 nM protein, 750 pM RNA pool; temperature not stated; high values mean tight binding; sequences stand for … in GGGUAAAAGCGAGGUGAA…CGGGACAAGUAUUAUGGG

Row | Sequence | binding signal (log2 fold change)
1 | UUUUUUUUUUGAGAUGGGACCCAUCUCCAG [tttttgagapaired] | 0.311
2 | UUUUUUUUUUGAGAGGGGUCCCCUCUCCUA [tttttgagapaired] | 0.955
3 | GUGUGUUGUGUUGGAUUCUAACACAGCGCA [gtspaired] | -0.631
4 | UUUUUUUUUUGAGAUCGAGACGAUCUCCUA [tttttgagapaired] | 0.0599
5 | GUGUGGUGUGUUGGCUCCUAACACAUCGCA [gtspaired] | -0.517
6 | UUUUUUUUUUGAGAGCGUAGCGCUCUUCUA [tttttgagapaired] | 0.271
7 | GGUGUGUGUGUUGGCACCUAACACACGCGC [gtspaired] | -0.34
8 | UUUUUUUUUUGAGACCGCAACGGUUUCCUA [tttttgagapaired] | 0.262
9 | UUUUUUUUUUGAGAUCGAACCGAUCUCCAG [tttttgagapaired] | 0.0525
10 | GGUUGGUGUGUUGGCACCUAACACAUCGAC [gtspaired] | -0.541
11 | UUUUUUUUUUGAGAGGGUGACCCUCUCCUA [tttttgagapaired] | 0.213
12 | UUUUUUUUUUGAGAUCGACACGAUCUUCUG [tttttgagapaired] | 0.0941
13 | UUUUUUUUUUGAGACGGAAGCUGUCUCCUG [tttttgagapaired] | 0.792
14 | UUUUUUUUUUGAGAGCGAUUCGUUCUCCAG [tttttgagapaired] | -0.141
15 | GUGGUGUGUGUUGGCACCUAACACACGCCG [gtspaired] | -0.253
16 | UUUUUUUUUUGAGACCGUGGCGGUCUCCUA [tttttgagapaired] | 0.633
17 | UUUUUUUUUUGAGACUGGCACAGUCUCCAG [tttttgagapaired] | 0.67
18 | UUUUUUUUUUGAGAGGGUGUCCUUCUCCAG [tttttgagapaired] | 0.707
19 | UUUUUUUUUUGAGAUGGAUGCCAUCUCCGG [tttttgagapaired] | 0.211
20 | UUUUUUUUUUGAGAGGGCUCCCUUCUCCAG [tttttgagapaired] | 0.453
21 | GGUGUGUGUGUUGGCGUCUAACACAUAUAC [gtspaired] | -0.7
22 | UUUUUUUUUUGAGAUGGGACCCAUCUUCUA [tttttgagapaired] | 0.304
23 | UUUUUUUUUUGAGAUGGGGACCAUCUUCUG [tttttgagapaired] | 0.472
24 | UUUUUUUUUUGAGAUGGUCUCCGUCUCCUA [tttttgagapaired] | 0.475
25 | UUUUUUUUUUGAGAUCGAUUCGAUCUCCUA [tttttgagapaired] | -0.54
26 | UUUUUUUUUUGAGAUGGGAACCAUCUCCGG [tttttgagapaired] | -0.0102

Row | Sequence | binding signal (log2 fold change)
27 | GUGUGUGGUGUUGGUCUCUAACACCACGCA [gtspaired] | -0.476
28 | UUUUUUUUUUGAGACGGUGUCCGUCUCCUA [tttttgagapaired] | 0.748
29 | UUUUUUUUUUGAGAGGGGGCCCCUCUCCUG [tttttgagapaired] | 1.3
30 | UUUUUUUUUUGAGACGGGCACUGUCUCCUA [tttttgagapaired] | 0.839
31 | UUUUUUUUUUGAGACUGCGUCAGUUUCCAG [tttttgagapaired] | 0.765
32 | UUUUUUUUUUGAGACGGUAUCCGUCUCCUA [tttttgagapaired] | 0.0931
33 | UUUUUUUUUUGAGAGUGGGACAUUCUUCUA [tttttgagapaired] | 0.364
34 | GUGUGGUGUGUUGGUACCUAACACACCGCG [gtspaired] | -0.838
35 | GUGUGGUGUGUUGGAGUCUAACACACUACG [gtspaired] | -0.672
36 | GUGUGGUGUGUUGGCGUCUAACACACUAUA [gtspaired] | -1.03
37 | UUUUUUUUUUGAGAGGGAGACCCUCUCCUA [tttttgagapaired] | 0.322
38 | UUUUUUUUUUGAGAGUGAGGCACUCUCCGG [tttttgagapaired] | 0.131
39 | UUUUUUUUUUGAGAGCGGGGCGCUCUUCUG [tttttgagapaired] | 0.504
40 | UUUUUUUUUUGAGAGCGAAUCGCUCUCCGG [tttttgagapaired] | 0.18
41 | UUUUUUUUUUGAGAGGGUACCCCUCUCCGG [tttttgagapaired] | 0.175
42 | GGUGGUUGUGUUGGAUUCUAACACAAUCGC [gtspaired] | -0.621
43 | GUGGUUGGUGUUGGACCCUAACACCAAUCA [gtspaired] | -0.44
44 | UUUUUUUUUUGAGACGGCGUCCGUCUCCUA [tttttgagapaired] | 0.811
45 | UUUUUUUUUUGAGACCGAAUCGGUCUCCUA [tttttgagapaired] | 0.269
46 | GUUGUGUGUGUUGGCACCUAACACACGCAG [gtspaired] | -0.382
47 | UUUUUUUUUUGAGAGGGUGCCCCUCUUCUA [tttttgagapaired] | 0.457
48 | GUGGUGUGUGUUGGCACCUAACACACAUCA [gtspaired] | -0.36
49 | GUGGUGUGUGUUGGCAUCUAACACACGCCG [gtspaired] | -0.655
50 | UUUUUUUUUUGAGACGGCAGCCGUCUUCUG [tttttgagapaired] | 0.678
51 | UUUUUUUUUUGAGAUGGGGACCAUUUCCGG [tttttgagapaired] | 0.808
52 | GGUGUGUGUGUUGGAGCCUAACACACGCGC [gtspaired] | -0.329

Row | Sequence | binding signal (log2 fold change)
53 | UUUUUUUUUUGAGAGGGUGUCCUUCUCCUA [tttttgagapaired] | 0.627
54 | UUUUUUUUUUGAGACGGUAACCGUUUCCUA [tttttgagapaired] | 0.387
55 | GGUUGGUGUGUUGGCUUCUAACACAUCGAC [gtspaired] | -0.749
56 | UUUUUUUUUUGAGAACGGGACGUUCUUCUA [tttttgagapaired] | 0.242
57 | GUGGUUGGUGUUGGUACCUAACACCGACUA [gtspaired] | -0.45
58 | GUGUGGUGUGUUGGCACCUAACACACUACG [gtspaired] | -0.751
59 | UUUUUUUUUUGAGAUCGACACGAUCUUCUA [tttttgagapaired] | -0.0491
60 | UUUUUUUUUUGAGAUGGAUACCAUCUCCUA [tttttgagapaired] | 0.0893
61 | GUGUGUUGUGUUGGCCCCUAACACAGCGCA [gtspaired] | -0.276
62 | GUUGGUGGUGUUGGAGCCUAACACCGCCAA [gtspaired] | -0.332
63 | UUUUUUUUUUGAGAGCGAACCGUUCUCCUG [tttttgagapaired] | 0.344
64 | GGUUGUGGUGUUGGCCUCUAACACCAUAAC [gtspaired] | -0.151
65 | GUUGUGUGUGUUGGCUCCUAACACACGCGA [gtspaired] | -0.802
66 | UUUUUUUUUUGAGACGGGGUCUGUCUCCUA [tttttgagapaired] | 0.813
67 | GUGUGUGGUGUUGGCUCCUAACACCAUACG [gtspaired] | -0.672
68 | UUUUUUUUUUGAGACCGCAGCGGUCUCCGG [tttttgagapaired] | 0.947
69 | GUGUGUUGUGUUGGUCUCUAACACAGCACA [gtspaired] | -0.604
70 | UUUUUUUUUUGAGACUGUAGCAGUUUCCGG [tttttgagapaired] | 0.862
71 | GUUGGUGGUGUUGGCACCUAACACCGCCAA [gtspaired] | -0.58
72 | UUUUUUUUUUGAGACCGGCACGGUCUCCGG [tttttgagapaired] | 0.678
73 | UUCUCUUCUCCUCCGUGGGAGGGGAAGGGA [ctspaired] | -0.42
74 | GUUGUGUGUGUUGGUGUCUAACACACGCGA [gtspaired] | -0.441
75 | GUGGUGUGUGUUGGAUCCUAACACAUACCG [gtspaired] | -0.609
76 | UUUUUUUUUUGAGAUGGAAGCCAUCUCCGG [tttttgagapaired] | 0.085
77 | GUGUUGUGUGUUGGUGCCUAACACACAACG [gtspaired] | -0.397
78 | UUUUUUUUUUGAGACGGAGUCCGUCUUCUA [tttttgagapaired] | 0.368

Row | Sequence | binding signal (log2 fold change)
79 | GUUGUGUGUGUUGGUGCCUAACACACACAG [gtspaired] | -0.374
80 | UUUUUUUUUUGAGAACGAUCCGUUCUCCGG [tttttgagapaired] | 0.0793
81 | UUCCUUCUUCCUCCAUGGGAGGGAGAGGGA [ctspaired] | -0.823
82 | UUUUUUUUUUGAGAUGGGGACUAUCUCCUA [tttttgagapaired] | 0.496
83 | UUUUUUUUUUGAGACGGAGGCCGUUUCCUG [tttttgagapaired] | 0.66
84 | UUUUUUUUUUGAGAGCGAUACGCUCUCCUA [tttttgagapaired] | -0.0853
85 | UUUUUUUUUUGAGAGCGGGGCGCUCUCCUG [tttttgagapaired] | 0.398
86 | UUUUUUUUUUGAGACUGUGUCAGUUUCCUA [tttttgagapaired] | 0.643
87 | UUUUUUUUUUGAGACCGAGGCGGUCUCCUG [tttttgagapaired] | 0.45
88 | UUUUUUUUUUGAGAGCGAGUCGCUCUCCAG [tttttgagapaired] | 0.51
89 | UUCUUCUCUCCUCCGAGGGAGGGGGGAAGA [ctspaired] | 0.00065
90 | UUUUUUUUUUGAGACUGAAGCAGUUUCCAG [tttttgagapaired] | 0.472
91 | GUGUGUGGUGUUGGACCCUAACACCACGCG [gtspaired] | -0.517
92 | UUUUUUUUUUGAGAGGGGUCCCCUCUCCGG [tttttgagapaired] | 0.949
93 | UUUUUUUUUUGAGAUGGUGUCCGUCUCCAG [tttttgagapaired] | 1.02
94 | UUUUUUUUUUGAGAUGGAUGCCAUCUCCUA [tttttgagapaired] | 0.161
95 | UUUUUUUUUUGAGAACGACACGUUCUCCAG [tttttgagapaired] | 0.0481
96 | UUUUUUUUUUGAGAGCGUUGCGCUCUCCGG [tttttgagapaired] | 0.447
97 | UUUUUUUUUUGAGACGGCGUCCGUCUUCUG [tttttgagapaired] | 0.908
98 | UUUUUUUUUUGAGAACGGAACGUUCUUCUA [tttttgagapaired] | -0.285
99 | GGUUGUGGUGUUGGCACCUAACACCGCGAC [gtspaired] | -0.527
100 | GUGUGGUGUGUUGGAACCUAACACAUCACA [gtspaired] | -0.5
101 | GUGGUGUGUGUUGGACCCUAACACACACCG [gtspaired] | -0.0218
102 | GUGUGGUGUGUUGGAGUCUAACACAUCACA [gtspaired] | -0.728
103 | UUUUUUUUUUGAGACGGGGGCCGUCUCCGG [tttttgagapaired] | 0.807
